Data: publication PMC12434519 (ACS Medicinal Chemistry Letters, 2025)
Where “and” joins values, the source holds several entries; their conditions need not be identical. Equal values may be shown once. Read-outs that look alike come from different tables or passages of the source.

Legend:
SARS-CoV-2 NSP14 [1] = target: T1, SARS-CoV-2 NSP14 (Severe acute respiratory syndrome coronavirus 2, UniProt P0DTD1); experiment: biochemical; conditions: for NSP14 SARS COV2 : Hill slope: Sheet2
SARS-CoV-2 NSP14 [2] = target: T1, SARS-CoV-2 NSP14; conditions: for TM of NSP14 + SAH + compound (ternary complex): NSP14 + SAH 47.3 °C; for TM Replicate 1 (ºC) (NSP14+SAH+cmpd): NSP14+SAH 47; for TM Replicate 1 (ºC) (NSP14+SAH+cmpd) / TM (ºC) (NSP14+compound): SBVS hits; for TM (ºC) (NSP14+compound): NSP14 alone 43; for ∆TM (°C) / Average Tm NSP14 (ºC) + compound + SAH: HTS hits; for Average Tm NSP14 (ºC) + compound + SAH: NSP14 + SAH 48.0
[3] = LUM % inhibition, read-out: SARS-CoV-2 NSP14 inhibition: IC50
[4] = LUM % inhibition, read-out: SARS-CoV-2 NSP14 inhibition: Maximum response
[5] = fit of concentration-response curve
[6] = n = 3, read-out: IC50 for the inhibition of SARS-CoV-2 NSP14 (95% CI)
[7] = 0.75 h, read-out: NSP14 SARS COV2 : Maximum measured (%)
[8] = Sheet1, NSP14+SAH+compound vs NSP14+SAH

Compound	IC50 (SARS-CoV-2 NSP14 [1]; [3])	Emax (SARS-CoV-2 NSP14 [1]; [4])	SARS-CoV-2 NSP14 inhibition: Hill slope (SARS-CoV-2 NSP14 [1]; SBVS hits)	SARS-CoV-2 NSP14 inhibition: Hill slope (SARS-CoV-2 NSP14 [1]; [5])	IC50 (SARS-CoV-2 NSP14 [1]; [6])	TM Replicate 1 (ºC) (NSP14+SAH+cmpd) (SARS-CoV-2 NSP14 [2])	TM (ºC) (NSP14+compound) (SARS-CoV-2 NSP14 [2])	other results
CCn1nc(C)c(C(=O)NCCc2ccc(CNC(=O)c3ccc4[nH]ncc4c3)cc2)c1C [RU-0834081, CCN1N=C(C)C(C(=O)NCCC2=CC=C(CNC(=O)C3=CC4=C(C=C3)NN=C4)C=C2)=C1C]	2.67 µM	93.9%	1.15	1.15	2.7 µM	48.5 ºC	43 ºC	TM of NSP14 + SAH + compound (ternary complex) (SARS-CoV-2 NSP14 [2]; DSF, n = 3): 48.5 ± 0.0 °C and 48.5 °C; TM of NSP14 + compound (absence of SAH) (SARS-CoV-2 NSP14 [2]; DSF, NSP14 alone […], n = 3): 42.5 ± 0.5 °C
Cc1cnc(C(C)NC(=O)c2ccc(CNC(=O)c3ccc(O)c(C)c3)cn2)nc1 (stereo not shown) [RU-0834184, CC1=CN=C(C(C)NC(=O)C2=NC=C(CNC(=O)C3=CC=C(O)C(C)=C3)C=C2)N=C1]	6.76 µM	84.2%	1.05	1.05	6.8 µM	48 ºC	43 ºC	
Cc1nccc(C(=O)NCC2CCC3(CN(C(=O)c4cc(C)c5[nH]ncc5c4)C3)O2)c1C (stereo not shown) [RU-0834173, CC1=C2C(=CC(C(=O)N3CC4(C3)CCC(CNC(=O)C3=C(C)C(C)=NC=C3)O4)=C1)C=NN2]	5.29 µM	88.5%	1.06	1.06	5.3 µM	48 ºC	43 ºC	TM of NSP14 + SAH + compound (ternary complex) (SARS-CoV-2 NSP14 [2]; DSF, n = 3): 49.3 °C
O=S(=O)(c1cccc2nsnc12)N1CCc2ccccc2C1 [RU-0378384, O=S(=O)(N1CCC2=CC=CC=C2C1)C1=CC=CC2=NSN=C12]								Emax (SARS-CoV-2 NSP14 [1]; [7]): 86.5%; NSP14 SARS COV2 : Hill slope (SARS-CoV-2 NSP14 [1]; HTS hits): 0.656; IC50 (SARS-CoV-2 NSP14 [1]; IC50 (µM), HTS hits, Suppl. Table 3 Sheet1): 9.19 µM; ∆TM (°C) (SARS-CoV-2 NSP14 [2]; [8]): 1.0 °C; ∆TM (°C) (SARS-CoV-2 NSP14 [2]; Sheet2, compound + SAH vs SAH): 1.0 °C; Average Tm NSP14 (ºC) + compound + SAH (SARS-CoV-2 NSP14 [2]): 49.0 ºC
COc1ccc(-c2ocnc2C(=O)Nc2ccc3oc(=O)n(CC(=O)N4CCCCC4)c3c2)cc1 [RU-0833661, COC1=CC=C(C2=C(C(=O)NC3=CC=C4OC(=O)N(CC(=O)N5CCCCC5)C4=C3)N=CO2)C=C1]	9.42 µM	74.4%	1.5	1.5	≤ 10 µM	46.5 ºC	43 ºC	
Cc1ccc(S(=O)(=O)Nc2nc3ccc(NC(=O)Cc4ccccc4)cc3s2)cc1 [RU-0359102, CC1=CC=C(S(=O)(=O)NC2=NC3=CC=C(NC(=O)CC4=CC=CC=C4)C=C3S2)C=C1]								Emax (SARS-CoV-2 NSP14 [1]; [7]): 70.9%; NSP14 SARS COV2 : Hill slope (SARS-CoV-2 NSP14 [1]; HTS hits): 1.48; IC50 (SARS-CoV-2 NSP14 [1]; HTS hits, Suppl. Table 3 Sheet1, read-out: IC50): 11.9 µM; ∆TM (°C) (SARS-CoV-2 NSP14 [2]; [8]): 0.5 °C; ∆TM (°C) (SARS-CoV-2 NSP14 [2]; Sheet2, compound + SAH vs SAH): 0.5 °C; Average Tm NSP14 (ºC) + compound + SAH (SARS-CoV-2 NSP14 [2]): 48.5 ºC
COc1ccccc1CNC(=O)c1cc(S(=O)(=O)N2CCC(C)CC2)c(C)n1C [RU-0415529, COC1=CC=CC=C1CNC(=O)C1=CC(S(=O)(=O)N2CCC(C)CC2)=C(C)N1C]								∆TM (°C) (SARS-CoV-2 NSP14 [2]; [8]): 5.0 °C; ∆TM (°C) (SARS-CoV-2 NSP14 [2]; Sheet2, compound + SAH vs SAH): 5.0 °C; Average Tm NSP14 (ºC) + compound + SAH (SARS-CoV-2 NSP14 [2]): 53.0 ºC
Cc1ccc(NS(=O)(=O)c2cc(C(=O)NCc3ccc4c(c3)OCCO4)ccc2C)cc1 [RU-0833931]	> 125 µM	12.1%		2.18				
Cc1ccc(N(C)S(=O)(=O)c2cccc(C(=O)N[C@H](C)c3ccc4c(c3)OCCO4)c2)cc1 [RU-0833659]								SARS-CoV-2 NSP14 inhibition: Hill slope (SARS-CoV-2 NSP14 [1]; Hill slope of the concentration-response fit): 46.6; Emax (SARS-CoV-2 NSP14 [1]; maximum response, LUM % inhibition, read-out: SARS-CoV-2 NSP14 inhibition: Maximum response (%)): -1.59%; IC50 (SARS-CoV-2 NSP14 [1]; read-out: SARS-CoV-2 NSP14 inhibition: IC50): > 62.5 µM
O=C(NCCc1ccccc1F)c1ccc(F)c(S(=O)(=O)N2CCCC2)c1 [RU-0833874]	> 125 µM	15%		23				
Cn1cc2cc(C(=O)NC3CC(O)(CNC(=O)c4cnn5ncccc45)C3)ccc2n1 (stereo not shown) [RU-0834113]	> 125 µM	10.4%		368				
O=C(NCc1cn2ccccc2n1)c1cccc(S(=O)(=O)N2CCc3ccccc3C2)c1 [RU-0833898]	> 125 µM	18.2%		33.6				
